Reference: article PMC4336329 (PLoS ONE, 2015)
The whole screen tested about 310,000 compounds, of which about 14,000 (4.5%) showed an effect of 50% or more. The effect is printed as a negative number. Some of the results follow.

The molecules below were run against human ether-à-go-go-related gene (hERG) potassium channel (human, UniProt Q12809) (assay: primary screen, population patch clamp on CHO cells stably expressing hERG).
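Also: peak tail current of the secondary pulse compared with the same well before compound.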

human ether-à-go-go-related gene (hERG) potassium channel, sequence (Q12809 whole entry, looked up): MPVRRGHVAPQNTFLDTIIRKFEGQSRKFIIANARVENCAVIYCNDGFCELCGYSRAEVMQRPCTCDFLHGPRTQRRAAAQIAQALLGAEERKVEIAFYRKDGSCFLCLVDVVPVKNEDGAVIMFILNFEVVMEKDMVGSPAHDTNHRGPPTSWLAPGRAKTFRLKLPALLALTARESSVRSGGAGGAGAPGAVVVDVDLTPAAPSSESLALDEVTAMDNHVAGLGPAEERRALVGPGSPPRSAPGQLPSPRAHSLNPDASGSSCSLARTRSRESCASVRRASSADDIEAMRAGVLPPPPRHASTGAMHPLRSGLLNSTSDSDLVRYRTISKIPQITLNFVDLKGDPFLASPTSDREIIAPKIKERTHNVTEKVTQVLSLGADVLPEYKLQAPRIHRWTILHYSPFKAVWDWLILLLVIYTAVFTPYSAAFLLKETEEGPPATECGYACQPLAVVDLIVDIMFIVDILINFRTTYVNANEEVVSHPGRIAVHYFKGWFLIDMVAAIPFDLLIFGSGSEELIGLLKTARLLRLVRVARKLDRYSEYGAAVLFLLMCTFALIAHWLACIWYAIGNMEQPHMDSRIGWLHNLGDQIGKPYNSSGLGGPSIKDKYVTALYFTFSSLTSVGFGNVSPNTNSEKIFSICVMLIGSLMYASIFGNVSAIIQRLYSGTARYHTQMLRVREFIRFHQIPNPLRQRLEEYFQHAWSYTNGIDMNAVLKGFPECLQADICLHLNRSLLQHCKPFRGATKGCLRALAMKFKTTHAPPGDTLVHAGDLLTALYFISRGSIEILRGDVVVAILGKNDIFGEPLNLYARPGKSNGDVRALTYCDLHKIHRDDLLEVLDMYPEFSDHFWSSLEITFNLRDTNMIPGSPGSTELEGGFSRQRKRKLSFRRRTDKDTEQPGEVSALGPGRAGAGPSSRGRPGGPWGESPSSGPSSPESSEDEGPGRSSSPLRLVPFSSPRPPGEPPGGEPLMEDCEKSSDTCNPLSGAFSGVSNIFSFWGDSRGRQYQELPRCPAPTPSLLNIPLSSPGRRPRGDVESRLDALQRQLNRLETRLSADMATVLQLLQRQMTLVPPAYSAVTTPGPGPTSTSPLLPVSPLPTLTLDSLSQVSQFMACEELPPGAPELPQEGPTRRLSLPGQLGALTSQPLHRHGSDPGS

Row | SMILES | hERG current change (%, negative = inhibition) at 10uM
1 | CCc1nnc(NC(=O)CSc2nnc(CNC(=O)c3ccc(OC)c(OC)c3)o2)s1 | -0.109%
2 | Cc1c(C(=O)Nc2nc3ccccc3[nH]2)oc2ccccc12 | -13%
3 | COc1ccc(S(=O)(=O)N2CCCCC2)cc1NC(=O)CN1CCN(C(C)=O)CC1 | 5.51%
4 | C#CCOCCOCCOCCNc1nc(N2CCN(C(=O)[C@H]([C@@H](C)CC)n3cc(CCCC[NH3+])nn3)CC2)nc(N2CCN(C(=O)[C@H]([C@@H](C)CC)n3cc(CCC[NH+]=C(N)N)nn3)CC2)n1.[Cl-] | 14.1%
5 | Cc1noc(C)c1COC(=O)c1cc2c(C)nn(-c3ccc(F)cc3)c2s1 | 9.42%
6 | CC(C)SCCCOc1ccc(C(C)(C)C)cc1 | 13%
7 | O=C(CSc1nc2ccccc2c(=O)n1Cc1ccc(F)cc1)NCc1cccs1 | -14%
8 | O=Cc1ccccc1OCCCOc1cccc2cccnc12 | -4.59%
9 | Cn1c(SCc2ccc(F)cc2)nnc1-c1ccccn1 | -1.53%
10 | O=C1OC(C(=O)Nc2nccs2)Cc2ccccc21 (centres unmarked) | 12.7%
11 | O=C1C2C3C=CC(CC3)C2C(=O)N1c1ccccc1F (centres unmarked) | 21.3%
12 | O=[N+]([O-])c1cccnc1N1CCCCC1 | 5.7%
13 | O=C(c1c(F)cccc1F)N1CCC(O)(c2cccnc2)CC1 | -7.47%
14 | CC(C)Nc1cc(C(F)(F)F)nc(-c2ccccn2)n1 | -6.66%
15 | CC[C@H](C)C(C(=O)N1CCN(C(=O)OC(C)(C)C)CC1)n1cc(C(Cc2ccc(O)cc2)NC(=O)OC(C)(C)C)nn1 (some centres unmarked) | 2.29%
16 | COc1ccccc1NC(=O)C(C)N1CCN(C/C=C/c2ccccc2)CC1 (centres unmarked) | -74.5%
17 | O=C(NS(=O)(=O)Oc1ccc(F)cc1F)OC[C@@H]1CCCN2CCCCC12 (some centres unmarked) | 17.9%
18 | CCCOC1CCCN(C(=O)CCc2nnc(-c3ccc4c(c3)OCO4)o2)C1 (centres unmarked) | 16%
19 | CC(NC(=O)c1ccco1)c1nc(-c2ccccc2Cl)no1 (centres unmarked) | 3.9%
20 | CN(C(=O)COC(=O)c1cccc(S(=O)(=O)N(C)c2ccccc2)c1)C1CCCCC1 | -22.9%
21 | COc1cc(OC)c(C2=NOC(C(=O)N3CCc4ccccc4C3)C2)cc1Cl (centres unmarked) | -34.3%

Row | SMILES | hERG current change (%, negative = inhibition) at 10uM
22 | O=S(=O)(c1ccc(Br)cc1)N1CCN=C1SCc1cccc(F)c1 | 8.08%
23 | O=c1[nH]c(=S)n(C2CC2)c(O)c1C=NCCN1CCOCC1 | 15.5%
24 | CCOc1cc(N2CCOCC2)c(OCC)cc1NC(=O)COC(=O)[C@H](Cc1c[nH]c2ccccc12)NC(C)=O | -6.43%
25 | COC(=O)c1cccc(NC(=O)/C=C/c2cccc([N+](=O)[O-])c2)c1 | 3.45%
26 | CCOc1ccc(CN2CCN(Cc3cccn3-c3cccnc3)CC2CCO)cc1 (centres unmarked) | -84.1%
27 | O=C(N/N=C/c1ccc[nH]1)c1cc2ccccc2cc1O | 13.1%
28 | O=C1C2C3C=CC(C3)C2C(=O)N1c1ccc2ccccc2n1 (centres unmarked) | 1.32%
29 | COC(=O)CCCCCN1C(=O)NC(c2ccc(-c3ccccc3)cc2)C(C(=O)OCc2ccccc2)=C1C (centres unmarked) | 4.69%
30 | CC1CCC2(CC1)NC(=O)N(CC(=O)Nc1ccc3c(c1)OCCCO3)C2=O (centres unmarked) | -4.52%
31 | CC(C)[C@@H](C(=O)NC1CC1)N1C(=O)N2CCc3c([nH]c4ccccc34)[C@@]2(C)C1=O | -6.45%
32 | C/C(=N\NC(=O)COc1ccc([N+](=O)[O-])cc1)C(C)(C)C | -8.02%
33 | Cc1ccccc1[N+](=O)[O-] | 7.56%
34 | O=C(c1cnc(Cl)c(Cl)c1)N1CCN(S(=O)(=O)c2ccc(F)cc2)CC1 | -23.9%
35 | CCCCOc1ccc(S(=O)(=O)Nc2cccnc2)cc1 | -7.43%
36 | Cn1nc(C(C)(C)C)c(NC(=O)c2ccc(F)cc2)c1C(C)(C)C | 2.08%
37 | Cc1nn(C)c(C)c1S(=O)(=O)N(CC(=O)Nc1nccs1)c1ccc(C(C)C)cc1 | 8.37%
38 | Cc1ccc(S(=O)(=O)N2CCN(c3ccc([N+](=O)[O-])cn3)CC2)cc1 | 4.2%
39 | CCOc1ccc(Cn2c(C)nc([N+](=O)[O-])c2SCC(O)CCl)cc1[N+](=O)[O-] (centres unmarked) | -68.2%
40 | COc1ccc(Br)cc1/C=N/NC(=O)C[n+]1ccccc1.[Cl-] | 25.5%
41 | CCCCNC(=O)C1CCC(CNc2c(N3CCC(C)CC3)c(=O)c2=O)CC1 (centres unmarked) | 10.4%
